These results are taken from a collection of fitness landscapes (doi:10.1126/science.1257360).

The list shows a part of the results.

First the molecules themselves.
B1: PhoQ; a variant is named by its letters at X, in order, P23837 (parent)
chain: MKKLLRLFFPLSLRVRFLLATAAVVLVLSLAYGMVALIGYSVSFDKTTFRLLRGESNLFYTLAKWENNKLHVELPENIDKQSPTMTLIYDENGQLLWAQRDVPWLMKMIQPDWLKSNGFHEIEADVNDTSLLLSGDHSIQQQLQEVREDDDDAEMTHSVAVNVYPATSRMPKLTIVVVDTIPVELKSSYMVWSWFIYVLSANLLLVIPLLWVAAWWSLRPIEALAKEVRELEEHNRELLNPATTRELTSLVRNLNRLLKSERERYDKYRTTLTDLTHSLKTPLXXLQXXLRSLRSEKMSVSDAEPVMLEQISRISQQIGYYLHRASMRGGTLLSRELHPVAPLLDNLTSALNKVYQRKGVNISLDISPEISFVGEQNDFVEVMGNVLDNACKYCLEFVEISARQTDEHLYIVVEDDGPGIPLSKREVIFDRGQRVDTLRPGQGVGLAVAREITEQYEGKIVAGESMLGGARMEVIFGRQHSAPKDE

Variants of B1 are the subject of this assay. In words: enrichment ratio after two sorts for PhoP signalling (ratio (wild type AVST 3.29)); higher = more functional. The settings on record: with PhoP (E. coli).
Regarding GHYD, the enrichment ratio was not above 0.25. With DCHN, the enrichment ratio is not above 0.25.

Consider RNWG, for which the enrichment ratio was not above 0.25. With YHNM, the enrichment ratio is not above 0.25. With WTQF, the enrichment ratio was not above 0.25. Regarding YVSP, the enrichment ratio was not above 0.25. The same measure for MFMR: not above 0.25; for QSTH: not above 0.25. With QMTC, the enrichment ratio was not above 0.25. Take NPKH: the enrichment ratio was not above 0.25. The same measure for MRAG: not above 0.25; for ELIH: not above 0.25. Turning to YTEQ, the enrichment ratio is not above 0.25. With HWMI, the enrichment ratio was not above 0.25. As for FPWF, the figure is not above 0.25.

Consider MPCP, for which the enrichment ratio was not above 0.25.

Regarding PKVD, the enrichment ratio is not above 0.25.

As for WGLY, the enrichment ratio is not above 0.25.

On to VSLQ, for which the enrichment ratio is 10.1. As for DYWW, the figure is not above 0.25; as for YIGG, 0.444; as for YCCQ, 0.731. The same measure for KIQI: not above 0.25; for WHTE: not above 0.25; for HRAS: not above 0.25. Consider LVSH, for which the enrichment ratio is not above 0.25. TLKT: the enrichment ratio was not above 0.25. Regarding SEQT, the enrichment ratio was not above 0.25. The same measure for KALA: not above 0.25. Regarding MCFI, the enrichment ratio was not above 0.25. As for NSYA, the figure is not above 0.25. As to GCEF, the enrichment ratio was not above 0.25.

As for TRHS, the enrichment ratio was not above 0.25. With KAIE, the enrichment ratio was not above 0.25. As for TAWR, the figure is not above 0.25; as for ADWG, not above 0.25.

In the case of KCKY, the enrichment ratio is not above 0.25. As for TGAF, the figure is 4.1; as for RLCW, not above 0.25. As for MTAC, the figure is 1.84; as for QTDY, not above 0.25. As for WMWA, the figure is not above 0.25; as for LAKQ, not above 0.25. As for ERLM, the enrichment ratio is not above 0.25. In the case of AKQA, the enrichment ratio is not above 0.25. As for MEKR, the figure is not above 0.25. The same measure for AERC: not above 0.25. As for KNSH, the figure is not above 0.25; as for TMAD, not above 0.25. Take LQNI: the enrichment ratio is not above 0.25. As for PIRE, the figure is not above 0.25; as for HGAS, not above 0.25; as for KEGF, not above 0.25. Regarding LRWG, the enrichment ratio is not above 0.25. The same measure for RAKI: not above 0.25; for KTRV: not above 0.25; for IQLN: not above 0.25. Take RTGT: the enrichment ratio was not above 0.25.

As for DIFG, the enrichment ratio was not above 0.25. As for EFWW, the figure is not above 0.25; as for QGTS, not above 0.25; as for LEEF, not above 0.25. As for PYRE, the enrichment ratio was not above 0.25.

Consider NMKT, for which the enrichment ratio is not above 0.25. The same measure for NLNA: not above 0.25. As for VYAA, the figure is not above 0.25; as for LDAK, not above 0.25; as for GKLY, not above 0.25. As for QLWQ, the figure is 11.9. On to IPII, for which the enrichment ratio is not above 0.25. STYW: the enrichment ratio was not above 0.25.

On to YHRY, for which the enrichment ratio is not above 0.25. Regarding TCRF, the enrichment ratio was not above 0.25. The same measure for AWFN: not above 0.25; for ADGD: not above 0.25; for FMYL: not above 0.25. As for IYWE, the figure is not above 0.25; as for TGVY, 2.88. On to FQRS, for which the enrichment ratio is not above 0.25.

On to EMKS, for which the enrichment ratio was not above 0.25. KAPL: the enrichment ratio was not above 0.25. Turning to INTD, the enrichment ratio is not above 0.25. Turning to RSES, the enrichment ratio is not above 0.25. As for SKWW, the figure is not above 0.25; as for DPML, not above 0.25; as for VRQR, not above 0.25. The same measure for HMNS: not above 0.25; for SCHW: not above 0.25; for NSWM: not above 0.25. In the case of IDNG, the enrichment ratio is not above 0.25.

As for PFFQ, the enrichment ratio was not above 0.25. As for KPPA, the figure is not above 0.25; as for LVMA, not above 0.25.

Consider QETE, for which the enrichment ratio was not above 0.25. The same measure for IWVF: not above 0.25; for KNPM: not above 0.25; for KHYD: not above 0.25.

On to KDFQ, for which the enrichment ratio is not above 0.25. The same measure for NWYS: not above 0.25. As for MCWG, the figure is 4.16; as for MPCW, not above 0.25; as for SSPR, not above 0.25. The same measure for MPIN: not above 0.25; for LHCK: not above 0.25; for PYPP: not above 0.25. For LSNG, the enrichment ratio is not above 0.25. On to IYRG, for which the enrichment ratio is not above 0.25. Regarding YEIM, the enrichment ratio is 4.3.

As to IKRD, the enrichment ratio was not above 0.25. The same measure for EAYH: not above 0.25. The same measure for FKQH: not above 0.25; for SVEF: not above 0.25. With ATRF, the enrichment ratio is not above 0.25. Consider DECS, for which the enrichment ratio is not above 0.25.

As for WSWM, the enrichment ratio was not above 0.25.

TMRH: the enrichment ratio was not above 0.25.

On to DMFL, for which the enrichment ratio was not above 0.25. The same measure for FNHA: not above 0.25; for QSSD: not above 0.25; for TCWA: 0.276. With NVTR, the enrichment ratio is not above 0.25.

As to YGIS, the enrichment ratio is not above 0.25. The same measure for SHCE: 5.47; for YDNM: not above 0.25; for KLNG: not above 0.25. On to SVHP, for which the enrichment ratio is not above 0.25. The same measure for FIFI: not above 0.25; for QNYV: not above 0.25; for SWNM: not above 0.25. As for IQKS, the enrichment ratio is not above 0.25. The same measure for WIWQ: not above 0.25.

On to QQAF, for which the enrichment ratio is not above 0.25.

In the case of FECR, the enrichment ratio is not above 0.25. The same measure for MSDK: not above 0.25; for PQQH: not above 0.25.

With QIDE, the enrichment ratio was not above 0.25.

Regarding SYHA, the enrichment ratio is not above 0.25. As for KRPH, the figure is not above 0.25.

With DFNW, the enrichment ratio was not above 0.25. For IMCA, the enrichment ratio was not above 0.25. Take SFAF: the enrichment ratio was not above 0.25. Consider DAEN, for which the enrichment ratio is not above 0.25. As for NRKK, the enrichment ratio is not above 0.25. Take GRRA: the enrichment ratio was not above 0.25. The same measure for TPDK: not above 0.25. As for LNFY, the figure is not above 0.25. QNMF: the enrichment ratio was not above 0.25. Regarding QPWF, the enrichment ratio is not above 0.25. As for NMMK, the figure is not above 0.25.

Take YGDV: the enrichment ratio was not above 0.25. In the case of PEMR, the enrichment ratio was not above 0.25. As for QIDM, the enrichment ratio was not above 0.25. For FFWP, the enrichment ratio was not above 0.25.
